Assay results: the supplement of paper PMC7826260
This is one part of the list. Each Rep nickase domain was tested in vitro on the same pool of single strands (3 µM enzyme, 1 h, 37 °C); shown is the middle of each 90-letter strand. Values are log2 of uncut reads against the no-enzyme pool; uncut sequences lie near 0, cut ones below; no hit call is given. The scaling is to total reads; where an enzyme cuts many sequences, the uncut ones exceed 0.

Legend:
Assay in all cases: uncleaved DNA left, log2 of reads against the no-enzyme library (log2 ratio); higher = less cleavage (more negative = more Rep cleavage of the k-mer); sequences stand for … in CTCGTCCG…ACCGGAGA
[1] = system: T1, Rep nickase domain of Muscovy duck circovirus
T1 sequence (protein, residues 1-111, tag omitted): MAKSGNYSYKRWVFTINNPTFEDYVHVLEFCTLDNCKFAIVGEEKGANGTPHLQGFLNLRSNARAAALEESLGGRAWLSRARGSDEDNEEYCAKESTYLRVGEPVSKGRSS
Description: (§1)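 A pool of 90-nt single-stranded DNAs with seven random bases just before the constant AC of the nick site (name = the seven bases) was cut by 3 µM recombinant His6-SUMO-tagged Rep nickase domain (300 nM DNA, 50 mM HEPES pH 8.0, 50 mM NaCl, 1 mM MnCl2, 1 h, 37 °C, three replicates). Uncut DNA was amplified and sequenced.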

[2] = system: T2, Rep nickase domain of banana bunchy top virus
T2 sequence (protein, residues 1-94, tag omitted): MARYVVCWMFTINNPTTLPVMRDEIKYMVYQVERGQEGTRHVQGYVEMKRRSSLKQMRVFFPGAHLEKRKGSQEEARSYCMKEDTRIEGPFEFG
Description: as §1

[3] = system: T3, Rep nickase domain of cabbage leaf curl virus
T3 sequence (protein, residues 1-116, tag omitted): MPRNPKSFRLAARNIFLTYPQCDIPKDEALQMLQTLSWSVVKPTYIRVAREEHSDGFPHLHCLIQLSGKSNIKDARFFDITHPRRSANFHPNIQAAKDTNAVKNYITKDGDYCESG
Description: as §1

[4] = system: T4, Rep nickase domain of chickpea chlorotic dwarf virus
T4 sequence (protein, residues 1-124, tag omitted): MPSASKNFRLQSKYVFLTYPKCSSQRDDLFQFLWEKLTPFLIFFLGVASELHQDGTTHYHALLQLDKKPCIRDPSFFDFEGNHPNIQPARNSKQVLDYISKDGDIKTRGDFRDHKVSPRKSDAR
Description: as §1

[5] = system: T5, Rep nickase domain of faba bean necrotic yellows virus
T5 sequence (protein, residues 1-98, tag omitted): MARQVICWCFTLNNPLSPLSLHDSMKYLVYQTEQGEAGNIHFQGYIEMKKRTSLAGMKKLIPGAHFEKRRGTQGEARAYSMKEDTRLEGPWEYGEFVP
Description: as §1

[6] = system: T6, Rep nickase domain of maize striate mosaic virus
T6 sequence (protein, residues 1-117, tag omitted): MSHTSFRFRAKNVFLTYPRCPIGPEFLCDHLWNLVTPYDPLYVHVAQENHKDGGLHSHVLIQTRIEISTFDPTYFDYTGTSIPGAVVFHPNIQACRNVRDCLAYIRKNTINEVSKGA
Description: as §1

[7] = system: T7, Rep nickase domain of porcine circovirus 2
T7 sequence (protein, residues 2-116, tag omitted): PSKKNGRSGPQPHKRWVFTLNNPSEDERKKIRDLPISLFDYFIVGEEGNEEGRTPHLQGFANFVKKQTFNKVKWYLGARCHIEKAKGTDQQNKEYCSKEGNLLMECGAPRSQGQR
Description: as §1

[8] = system: T8, Rep nickase domain of tomato golden mosaic virus
T8 sequence (protein, residues 1-124, tag omitted): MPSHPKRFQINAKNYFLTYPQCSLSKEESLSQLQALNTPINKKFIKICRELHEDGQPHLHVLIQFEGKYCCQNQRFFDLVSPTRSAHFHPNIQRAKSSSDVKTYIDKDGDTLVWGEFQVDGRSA
Description: as §1

[9] = system: T9, Rep nickase domain of tomato yellow leaf curl virus
T9 sequence (protein, residues 1-136, tag omitted): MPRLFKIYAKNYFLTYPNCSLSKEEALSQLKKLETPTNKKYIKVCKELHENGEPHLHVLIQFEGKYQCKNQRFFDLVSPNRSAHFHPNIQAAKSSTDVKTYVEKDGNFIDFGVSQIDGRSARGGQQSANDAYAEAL
Description: as §1

[10] = system: T10, Rep nickase domain of wheat dwarf virus
T10 sequence (protein, residues 1-137, tag omitted): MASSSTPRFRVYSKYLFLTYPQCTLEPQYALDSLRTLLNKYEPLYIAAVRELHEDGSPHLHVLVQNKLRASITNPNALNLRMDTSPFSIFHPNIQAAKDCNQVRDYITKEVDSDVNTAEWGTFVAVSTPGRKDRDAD
Description: as §1

Row | Sequence | uncleaved DNA left (log2) [1] | uncleaved DNA left (log2) [2] | uncleaved DNA left (log2) [3] | uncleaved DNA left (log2) [4] | uncleaved DNA left (log2) [5] | uncleaved DNA left (log2) [6] | uncleaved DNA left (log2) [7] | uncleaved DNA left (log2) [8] | uncleaved DNA left (log2) [9] | uncleaved DNA left (log2) [10]
1 | GCCTTCA | -0.0168 | 0.148 | 0.251 | -0.0395 | 0.0017 | 0.415 | -0.0532 | 0.144 | 0.00166 | 0.0264
2 | CCCGAGC | 0.15 | 0.0508 | 0.513 | 0.961 | 0.049 | 0.0829 | 0.176 | 0.324 | -0.0108 | 0.115
3 | ATTCTCC | 0.0485 | 0.0219 | 0.0489 | 0.538 | 0.138 | 1.18 | 0.0934 | 0.0777 | 0.0266 | 0.067
4 | AGGTACG | -0.0246 | 0.00693 | -0.869 | -0.601 | -0.0393 | -0.977 | 0.193 | -0.0754 | -0.0855 | -0.117
5 | TAACAGT | -0.0456 | -0.112 | -2.47 | -2.98 | -0.0948 | -1.11 | -0.152 | -0.309 | 0.00734 | -0.748
6 | AGTATCT | 0.0723 | -0.0211 | 0.0831 | -1.46 | -0.116 | 0.169 | -3.27 | 0.0533 | 0.0526 | 0.0232
7 | GCTAAAT | 0.0214 | -0.0672 | 0.0714 | 0.299 | -0.0806 | 0.191 | -0.144 | -0.113 | 0.00657 | 0.0545
8 | TTCAGCC | -0.00643 | -0.0933 | -0.0712 | -0.497 | 0.0776 | -1.01 | -0.0123 | -0.0993 | 0.0638 | -0.0375
9 | AACGCGG | -0.115 | -0.0672 | 0.0959 | 0.476 | -0.0868 | 0.281 | 0.132 | -0.00576 | -0.138 | -0.0135
10 | TGTTTCA | -0.0357 | 0.0268 | 0.254 | 0.224 | -0.0439 | 1.26 | 0.00328 | 0.0495 | 0.0704 | -0.0245
11 | TAAATCA | 0.0873 | 0.201 | -1.94 | -2.51 | 0.15 | -0.0295 | 0.109 | -0.0312 | 0.222 | -0.859
12 | ACGGGGA | 0.0284 | -0.0987 | 0.649 | 0.945 | -0.00468 | 1.58 | 0.102 | -0.136 | -0.222 | -0.0819
13 | TGAAGAC | 0.0758 | 0.0308 | 0.174 | 0.484 | 0.06 | 0.32 | 0.145 | -0.00079 | 0.0338 | -0.0486
14 | AGAACAA | 0.0225 | 0.0266 | 0.4 | 0.729 | 0.055 | 0.532 | 0.0356 | 0.0762 | 0.104 | 0.165
15 | AGTACTC | 0.0145 | 0.0476 | 0.0508 | 0.225 | -0.0918 | 0.48 | -0.0938 | -0.0917 | -0.041 | 0.11
16 | GGACTCT | 0.137 | 0.129 | 0.734 | 1.6 | 0.0503 | 2.19 | 0.169 | -0.0352 | 0.107 | 0.266
17 | TATCGAC | 0.058 | 0.0639 | -0.00821 | 0.121 | -0.0235 | -0.00529 | 0.0652 | 0.0644 | 0.00218 | 0.0424
18 | ATAATCT | -0.0164 | 0.035 | 0.309 | -2.44 | 0.0454 | -0.63 | -0.224 | 0.0447 | 0.0548 | 0.0344
19 | AGTAAGC | 0.0946 | -0.0154 | -0.0283 | -0.174 | 0.0964 | -0.849 | 0.187 | 0.0688 | -0.00935 | -0.0235
20 | GTATCGG | -0.0551 | -0.00823 | 0.488 | 1.44 | 0.000558 | 2 | 0.00479 | 0.0768 | -0.0307 | -0.0668
21 | GAATAAA | 0.181 | 0.31 | 0.383 | 0.436 | 0.241 | 0.782 | 0.0847 | 0.318 | 0.25 | 0.21
22 | TTTTAAC | 0.00402 | -0.00372 | 0.0242 | -1.35 | 0.0263 | 0.384 | 0.0454 | 0.0817 | 0.00219 | 0.00582
23 | CGTACTG | -0.0676 | -0.111 | -0.00215 | 0.603 | -0.078 | 1.63 | 0.072 | -0.165 | -0.0473 | 0.0573
24 | GACCTGG | 0.162 | 0.114 | 0.1 | 0.315 | 0.0395 | -0.146 | 0.145 | 0.14 | 0.166 | 0.0603
25 | TTTAGCC | 0.0178 | -0.000401 | -0.0647 | -0.475 | -0.107 | -1.1 | 0.0111 | -0.0429 | 0.00663 | -0.0196
26 | CTCGGGA | 0.0765 | -0.0274 | 0.231 | 0.647 | -0.00507 | 0.545 | -0.0974 | -0.00381 | -0.0157 | 0.0152
27 | GACCTCA | 0.00726 | 0.0149 | 0.148 | -0.0486 | -0.00138 | 0.566 | -0.0119 | 0.0835 | 0.0612 | 0.0829
28 | AGGTTAG | 0.0401 | 0.0828 | -0.576 | -0.322 | 0.181 | -1.06 | 0.217 | 0.0979 | 0.0837 | 0.0887
29 | TTCTGCT | -1.51 | -0.0561 | -0.799 | -1.8 | -0.00125 | -1.17 | -3 | -0.111 | 0.0115 | -0.0641
30 | ACCGAAG | -0.297 | -0.157 | -0.876 | -0.365 | -0.0998 | -0.821 | -0.0401 | -0.111 | -0.209 | -0.228
